Hit rate of the full screen: of about 48,000 compounds, about 550 (1.1%) were called active. Inconclusive results (about 4%) are left out. Rule as the data show it: active = potency below about 15 µM; inconclusive = mostly about 16 µM to 33 µM; inactive = weaker than that. This is one part of the list.
Target: Lysosomal acid glucosylceramidase (Homo sapiens) (UniProt P04062)
Assay: Glucocerebrosidase;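 also: the screen sought inhibitors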
Settings: purified enzyme, resorufin glucoside fluorescence (screen aimed at inhibitors), 20 min
Outline: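 Compounds titrated against 0.2 nM normal enzyme, 30 uM resorufin beta-D-glucopyranoside substrate, citrate/phosphate buffer with taurocholate and tween-20, pH 5.9. Reaction ran 20 min at room temperature; fluorescence (Ex 548/Em 600) gave AC50.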
Potency is read from the fitted curve at half-maximal effect.

Sequence of UniProt P04062 (P04062 whole entry, looked up): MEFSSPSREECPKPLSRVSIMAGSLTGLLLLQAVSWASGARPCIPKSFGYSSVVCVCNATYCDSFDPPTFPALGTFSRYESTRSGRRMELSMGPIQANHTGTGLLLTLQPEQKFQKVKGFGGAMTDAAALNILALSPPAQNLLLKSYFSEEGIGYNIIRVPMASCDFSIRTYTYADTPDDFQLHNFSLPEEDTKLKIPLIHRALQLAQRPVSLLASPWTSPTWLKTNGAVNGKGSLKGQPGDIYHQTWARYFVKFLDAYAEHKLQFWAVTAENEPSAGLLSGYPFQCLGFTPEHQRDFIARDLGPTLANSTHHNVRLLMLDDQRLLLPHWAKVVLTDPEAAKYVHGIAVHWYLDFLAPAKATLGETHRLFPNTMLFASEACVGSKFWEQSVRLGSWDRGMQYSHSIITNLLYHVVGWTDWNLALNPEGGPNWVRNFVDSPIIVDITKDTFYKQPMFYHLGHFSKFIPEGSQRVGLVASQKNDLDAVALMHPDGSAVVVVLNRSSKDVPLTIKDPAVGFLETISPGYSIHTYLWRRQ

Potency, inactive:
Cc1cc2c3c(c1C)C1(C(=O)N3C(C)(C)CC2C)C(C#N)=C(N)Oc2n[nH]c(C)c21 (stereo not given) > 76.9 µM, Cc1sc2nc(SCC(=O)OC(C)C)n(C)c(=O)c2c1C > 76.9 µM, CN1CCN(P(=O)(c2ccccc2)c2nc3ccccc3s2)CC1 (stereo not given) > 76.9 µM, COC(=O)c1ccc(CSc2nccn2C)cc1 > 76.9 µM, Cn1c(=O)c2c(nc(CN3CCN(C(=O)c4ccco4)CC3)n2Cc2ccc(F)cc2)n(C)c1=O > 76.9 µM, O=C(NCCN1CCN(Cc2ccccc2)CC1)C1c2ccccc2C(=O)N2CCc3ccccc3C12 (stereo not given) > 76.9 µM, c1ccc(-c2nnc(SCc3cn4ccsc4n3)o2)cc1 > 76.9 µM, CC(C)CC(c1nnnn1C(C)C)N1CCN(c2cccc(Cl)c2)CC1 (stereo not given) > 76.9 µM, Cc1ccc(C(=O)NCc2cccs2)cc1S(=O)(=O)N1CCCCC1 > 76.9 µM, CC(=O)Oc1ccc2c(C)c(CC(C)O)c(=O)oc2c1 (stereo not given) > 76.9 µM, O=C(CSc1nc(-c2ccco2)cc(C(F)(F)F)n1)Nc1cccnc1 > 76.9 µM, CCOC(=O)C1CCN(C(=O)CN2C(=O)C(CC)Oc3ccccc32)CC1 (stereo not given) > 76.9 µM, CCCCCC(=O)OC(CN1CCCCC1)CN1CCCC1=O (stereo not given) > 76.9 µM, O=C(CSc1nnc(CNc2ccccc2)o1)N1CCCc2ccccc21 > 76.9 µM, CCC(=O)n1nc(-c2ccco2)nc1SCc1ccccc1 > 76.9 µM, Cc1noc(C)c1S(=O)(=O)N1CCC(C(=O)N2CCN(c3ccc(F)cc3)CC2)CC1 > 76.9 µM, O=C(CSc1nnc(-c2ccc(S(=O)(=O)N3CCOCC3)cc2)o1)c1ccccc1F > 76.9 µM, CC(CCc1ccccc1)NC(=O)c1ccncc1 (stereo not given) > 76.9 µM, O=C(NCc1ccc(N2CCCC2=O)cc1)Nc1ccccc1 > 76.9 µM, Cc1ccc(SCCNC(=O)CN2C(=O)c3ccccc3S2(=O)=O)cc1 > 76.9 µM, CCCC(=O)N1CCN(c2ccc(NC(=O)c3cc4ccccc4o3)cc2)CC1 > 76.9 µM, O=C(Nc1nncs1)c1ccc(Br)c(S(=O)(=O)N2CCCC2)c1 > 76.9 µM, CCSc1nnc(-c2cccc(S(=O)(=O)N(CC)CC)c2)n1Cc1ccccc1 > 76.9 µM, Cc1ccc(OCc2nc(C#N)c(NCc3ccco3)o2)cc1 > 76.9 µM, Cc1ccsc1C(=O)OCC(=O)N1CC(=O)Nc2ccccc21 > 76.9 µM, O=C(Cn1nnc(-c2cccs2)n1)N1CCc2ccccc2C1 > 76.9 µM, CCOc1ccc(OCC)c(NC(=O)CSc2nc3cccnc3n2C)c1 > 76.9 µM, CC(C)OC(=O)CN1C(=O)C(C)(C)Oc2ccc(C(=O)NC3CC3)cc21 > 76.9 µM, COc1cccc(-c2nn(C)c3sc(C(=O)NCc4ccccn4)cc23)c1 > 76.9 µM, CCOC(=O)c1[nH]c(C)c(C(=O)NC2CCN(C(=O)OCC)CC2)c1C > 76.9 µM, COc1cccc(NC(=O)N2CCC(C(N)=O)(N3CCCCC3)CC2)c1 > 76.9 µM, CCN=C1SC(C(=O)Nc2cccc(C(=O)O)c2)CC(=O)N1CC (stereo not given) > 76.9 µM, Cc1ccc(-n2nc3c(c2NC(=O)c2cccs2)CSC3)cc1 > 76.9 µM, COc1ccccc1CC1(C)NC(=O)N(CC(=O)N2CCc3ccccc3C2)C1=O (stereo not given) > 76.9 µM, CCOc1cccc(=O)c2c(C)n(C)c(C)c12 > 76.9 µM, Cn1c(N)c(C(=O)CSc2nc3ccccc3n2-c2ccccc2)c(=O)n(C)c1=O > 76.9 µM, O=C(O)C1CC=CCC1C(=O)NCc1ccccc1 (stereo not given) > 76.9 µM, COc1ccc(C2C3=C(CC(C)(C)CC3=O)Nc3c2c(=O)[nH]c(=O)n3Cc2ccccc2)cc1OC (stereo not given) > 76.9 µM, COc1ccc(-c2nnc(SCC(=O)N3CCCC3)o2)cc1OC > 76.9 µM, COc1cc(NC(=O)C2COc3ccccc3O2)c(OC)cc1Cl (stereo not given) > 76.9 µM, COC(=O)C1CCN(C(=O)CCCOc2ccccc2)CC1 > 76.9 µM, CC(C)c1cc(C(=O)O)on1 > 76.9 µM, C=C(C)COc1ccc(-c2[nH]ncc2-c2ccccc2OC)c(O)c1 > 76.9 µM, CCC(=O)N1CCc2cc(S(=O)(=O)NCCC(=O)N3CCc4ccccc4C3)ccc21 > 76.9 µM, Cc1ccc(S(=O)(=O)N2CCC(C(=O)N3CCC(C(=O)NCc4cccnc4)CC3)CC2)cc1 > 76.9 µM, Cc1ccc(C)c2[nH]c(=O)c(CN(Cc3ccco3)S(=O)(=O)c3ccc4c(c3)OCCO4)cc12 > 76.9 µM, CC(=O)N1c2c(cc(Br)cc2S(=O)(=O)N2CCN(C(=O)c3ccco3)CC2)CC1C (stereo not given) > 76.9 µM, COc1ccc(CCNC(=O)COc2nsnc2N2CCOCC2)cc1OC > 76.9 µM, COc1ccccc1NC(=O)c1cccc(NC(=O)c2ccco2)c1 > 76.9 µM, CCOc1ccc(CCNC(=O)C2CCN(c3nn4c(=O)cc(C)nc4s3)CC2)cc1OCC > 76.9 µM, Cc1ccc(Cl)cc1NC(=O)C1CCCN(S(=O)(=O)c2c(C)noc2C)C1 (stereo not given) > 76.9 µM, CNC(=O)c1ccc(OCc2ccccc2)c(OC)c1 > 76.9 µM, COc1ccc2c(CN(C)c3ccccc3)cc(=O)oc2c1 > 76.9 µM, c1n[nH]c(NCc2ccc3c(c2)OCO3)n1 > 76.9 µM, O=C(COC(=O)c1ccco1)Nc1cccc(Br)c1 > 76.9 µM, Cc1csc(=O)n1CCC(=O)O > 76.9 µM, CCSC1=C(C#N)C(c2cccc(Br)c2)CC(=O)N1 (stereo not given) > 76.9 µM, Fc1ccc(-c2nc3nc4ccccc4nc3n2Cc2ccco2)cc1 > 76.9 µM, Cc1noc(C)c1COc1cccc(C(=O)N2CCN(C/C=C/c3ccccc3)CC2)c1 > 76.9 µM, COC(=O)C(CC(=O)c1ccc(Br)cc1)n1ccnc1 (stereo not given) > 76.9 µM, O=C(O)c1cccc2c1C(=O)N(Cc1ccncc1)C2 > 76.9 µM, COc1cccc(CNc2ccc(F)c(Cl)c2)c1O > 76.9 µM, CCOc1ccccc1N1CCN(C(=O)c2cc3c(s2)CCC3)CC1 > 76.9 µM, CCN(C(=O)c1cc2cc3ccc(C)cc3nc2o1)c1ccc(OC)cc1 > 76.9 µM, Cc1ccc(C(=O)Nc2cccc(C(=O)NCc3ccccc3)c2)o1 > 76.9 µM, COc1ccccc1N(CC(=O)NC1CCCC1)C(=O)c1csnn1 > 76.9 µM, COc1cc(C(=O)Nc2ccc3c(c2)OCCO3)ccc1OC(C)C > 76.9 µM, CCC(=O)c1ccc(OCC(O)Cn2c(C)nc3ccccc32)cc1 (stereo not given), COc1ccc(N2C(=O)C(Cl)=C(N3CCCC3)C2=O)cc1 > 76.9 µM, COc1ccccc1-c1nc(C#N)c(N2CCC(Cc3ccccc3)CC2)o1 > 76.9 µM, NC(=O)C1CCN(C(=O)c2cc(S(=O)(=O)N3CCOCC3)c(Cl)cc2Cl)CC1 > 76.9 µM, COc1ccc(NC(=O)CCNC(C)=O)cc1NS(=O)(=O)c1ccc(F)cc1 > 76.9 µM, NS(=O)(=O)c1ccc(CCNc2cc(=O)n(Cc3ccc(F)cc3)c(=O)[nH]2)cc1 > 76.9 µM, COc1ccc(OC)c(S(=O)(=O)N2Cc3ccccc3CC2C(=O)Nc2nccs2)c1 (stereo not given) > 76.9 µM, Cc1cc(C)n2nc(CCc3nc4nc(C)cc(C)n4n3)nc2n1 > 76.9 µM, Cc1occc1C(=O)Nc1cc(C(C)(C)C)on1 > 76.9 µM, c1ccc(C2=NCCCN2)cc1 > 76.9 µM, O=C(c1ccccc1Br)N1CCN(c2ccccc2)CC1 > 76.9 µM, O=C(O)C1C2C=CC(C2)C1C(=O)OCc1ccccc1 (stereo not given) > 76.9 µM, O=C(Nc1ccccn1)C1CCN(S(=O)(=O)c2cccc3nonc23)CC1 > 76.9 µM, CCOC(=O)CN(C(=O)CSc1nnc(-c2ccncc2)n1CCCN(C)C)c1ccccc1 > 76.9 µM, Cc1ccc(S(=O)(=O)N(C)CC(=O)NC2CCCC2)cc1 > 76.9 µM, CC(=O)c1c(C)[nH]c(C(=O)NCCCN2CCCC2)c1C > 76.9 µM, CC(=O)Nc1cc2c(cc1NC(=O)Cn1nc(-c3ccccc3F)ccc1=O)OCCO2 > 76.9 µM, CC(C)Cn1c2c(c(O)c(C(=O)Nc3nccs3)c1=O)CCCC2 > 76.9 µM, O=C(Nc1cc(C(=O)N2CCCC2)ccc1N1CCCC1)c1ccccc1F > 76.9 µM, NC(=O)c1nsnc1-c1ccccc1O > 76.9 µM, COc1ccc(C)cc1NC(=O)c1cc2c(C)nc3ccccc3c2o1 > 76.9 µM, Cc1nc(N2CCN(Cc3ccc4c(c3)OCO4)CC2)nc2c1C(=O)CC(c1ccco1)C2 (stereo not given) > 76.9 µM, Cc1cc(C(=O)CSc2n[nH]c(N)n2)c(C)n1-c1cc(F)ccc1F
